The other results are listed elsewhere or left out. Many values rest on one well or one pass, so single values are uncertain.

The values that follow come from the supplement of paper PMC8512760.
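Further: stably firefly luciferase-GFP labeled cells in 96-well plates, viability read as luciferase photon flux after d-luciferin addition, treated wells normalized to vehicle wells, single-dose high-throughput screen.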

The subject of this test is SUM-149. As to the kind of experiment: cell viability relative to vehicle (% of vehicle); basal-like triple-negative breast cancer lines; higher = less cytotoxic. The settings on record: 10 µM; 72 h.
`CCC(C)C(=O)OC1CC(C)C=C2C=CC(C)C(CCC3CC(O)CC(=O)O3)C21` (configuration not stated) [Lovastatin]: the cell viability came to 101.
The value for `C#CC1(OC(C)=O)CCC2C3CCC4=CC(OC(C)=O)CCC4C3CCC21C` (configuration not stated) [Ethynodiol diacetate] was 90.1; that for `CC1(O)CC(c2nc(-c3ccc4ccc(-c5ccccc5)nc4c3)c3c(N)nccn23)C1` (configuration not stated) [Linsitinib] was 89.4.
Molecule `CCCCOc1cc(C(=O)NCCN(CC)CC)c2ccccc2n1` [Dibucaine] displayed a cell viability of 109.
The value for `C#CC1(O)CCC2C3CCc4cc(O)ccc4C3CCC21C` (configuration not stated) [Ethinyl Estradiol] was 114.
The figure for `CCC(C)n1ncn(-c2ccc(N3CCN(c4ccc(OCC5COC(Cn6cncn6)(c6ccc(Cl)cc6Cl)O5)cc4)CC3)cc2)c1=O` (configuration not stated) [Itraconazole] is 113; for `O=C1C(CCC(O)c2ccc(F)cc2)C(c2ccc(O)cc2)N1c1ccc(F)cc1` (configuration not stated) [Ezetimibe] it is 129.
The value for `O=C(O)c1ccccc1` [Benzoic Acid] was 102; that for `CCNC1CC(N)C(OC2OC(CN)=CCC2N)C(O)C1OC1OCC(C)(O)C(NC)C1O.CCNC1CC(N)C(OC2OC(CN)=CCC2N)C(O)C1OC1OCC(C)(O)C(NC)C1O.O=S(=O)(O)O.O=S(=O)(O)O.O=S(=O)(O)O.O=S(=O)(O)O.O=S(=O)(O)O` (configuration not stated) [Netilmicin Sulfate] was 81.7; that for `CCN(Cc1ccncc1)C(=O)C(CO)c1ccccc1` (configuration not stated) [Tropicamide] was 122.
On to `CC(C(=O)[O-])c1cccc(Oc2ccccc2)c1.CC(C(=O)[O-])c1cccc(Oc2ccccc2)c1.[Ca+2]` (configuration not stated) [Fenoprofen Calcium], for which the cell viability is 115.
`O=c1[nH]c(=O)n(C2CC(O)C(CO)O2)cc1F` (configuration not stated) [Floxuridine] registered a cell viability of 50.8.
As to `CCNC1CC(C)S(=O)(=O)c2sc(S(N)(=O)=O)cc21.Cl` (configuration not stated) [Dorzolamide HCl], the cell viability was found to be 92.4.
The figure for `Nc1nnc(-c2cccc(Cl)c2Cl)c(N)n1` [Lamotrigine] is 113; for `CC(C)(Oc1ccc(Cl)cc1)C(=O)O` [Clofibric Acid] it is 84.4; for `CCCC(CCC)C(=O)[O-].[Na+]` [Valproic acid sodium salt (Sodium valproate)] it is 112.
Molecule `CC(C(=O)O)c1ccc2c(c1)CC(=O)c1ccccc1S2` (configuration not stated) [Zaltoprofen] yielded a cell viability of 114.
Molecule `CCn1cc(C(=O)O)c(=O)c2cc(F)c(N3CCN(C)CC3)cc21.CS(=O)(=O)O` [Pefloxacin Mesylate] had a cell viability of 117.
The figure for `CNCCc1ccccn1.Cl.Cl` [Betahistine 2HCl] is 109; for `Cc1cc(C(C)(C)C)cc(C)c1CC1=NCCN1.Cl` [Xylometazoline HCl] it is 91.3.
The figure for `Cc1c(F)cc(C(=O)NC2CC2)cc1-c1ccc(C(=O)NCC(C)(C)C)cn1` [Losmapimod] is 58.1; for `CC(S)C(=O)NCC(=O)O` (configuration not stated) [Tiopronin (Thiola)] it is 95.2.
The figure for `CC(C)Nc1cc(-c2c[nH]c(C(=O)NC(CO)c3cccc(Cl)c3)c2)c(Cl)cn1` (configuration not stated) is 114; for `CCCS(=O)(=O)Nc1ccc(F)c(C(=O)c2c[nH]c3ncc(-c4ccc(Cl)cc4)cc23)c1F` [Vemurafenib (PLX4032, RG7204)] it is 106.
The molecule `CC(C)OC(=O)OCOP(=O)(COC(C)Cn1cnc2c(N)ncnc21)OCOC(=O)OC(C)C.O=C(O)C=CC(=O)O` (configuration not stated) [Tenofovir Disoproxil Fumarate] registered a cell viability of 112.
The value for `CCC1OC(=O)C(C)C(OC2CC(C)(OC)C(O)C(C)O2)C(C)C(OC2OC(C)CC(N(C)C)C2O)C(C)(OC)CC(C)C(=O)C(C)C(O)C1(C)O` (configuration not stated) [Clarithromycin] was 109; that for `Cc1c(Cl)cccc1Nc1ccccc1C(=O)O` [Tolfenamic Acid] was 111.
The molecule `Cc1cn(C2C=CC(CO)O2)c(=O)[nH]c1=O` (configuration not stated) [Stavudine (d4T)] came in with a cell viability of 101.
With `CN1C2CCC1CC(OC(c1ccccc1)c1ccccc1)C2.CS(=O)(=O)O` (configuration not stated) [Benztropine mesylate], the cell viability is 99.5.
The molecule `COC(=O)NC(C(=O)NC(Cc1ccccc1)C(O)CN(Cc1ccc(-c2ccccn2)cc1)NC(=O)C(NC(=O)OC)C(C)(C)C)C(C)(C)C.O=S(=O)(O)O` (configuration not stated) returned a cell viability of 116.
Take `COc1cc2nc(N3CCN(C(=O)C4COc5ccccc5O4)CC3)nc(N)c2cc1OC.CS(=O)(=O)O` (configuration not stated) [Doxazosin Mesylate]: the cell viability was determined as 91.
`O=C(c1cc(Cc2n[nH]c(=O)c3ccccc23)ccc1F)N1CCN(C(=O)C2CC2)CC1` displayed a cell viability of 147.
